# Laboratory results published in the supplement of paper PMC9446081.
# Out of some 39,000 compounds screened, about 220 (0.56%) showed activity. Some of the results follow.
# Tested on: Escherichia coli K-12 BW25113
# Assay: relative growth (OD600 normalised to plate interquartile mean) (fraction); higher = less growth inhibition, active = 0.2 or less
# Settings: 50 µM; LB; incubation time: overnight (16-24 h)
# 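Also: static incubation at 37 °C against the wild-type strain, values averaged over two biological replicates.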
row,SMILES,relative growth
1,C[C@H]1CN([C@@H](C)CO)C(=O)c2cc(NC(=O)Nc3ccc(C(F)(F)F)cc3)ccc2O[C@@H]1CN(C)S(=O)(=O)c1ccc(Cl)cc1,inactive: 1.01
2,CC1(C)C(=O)C2CC3(O)C4=CC(=O)OC(c5ccoc5)C4(C)CCC3C(C)(C2=O)C1CC(=O)O (configuration not stated),inactive: 0.979
3,C[C@H](CO)N1C[C@H](C)[C@H](CN(C)C(=O)Nc2ccccc2)OCCCC[C@H](C)Oc2ccc(NC(=O)Nc3ccccc3)cc2C1=O,inactive: 1.03
4,Cc1noc(C)c1NC(=O)Nc1ccc2c(c1)CC(=O)N([C@@H](C)CO)C[C@H](C)[C@@H](CN(C)Cc1ccc(-c3ccccc3)cc1)O2,inactive: 0.957
5,C/C=C/c1ccc2c(c1)O[C@@H](CN(C)S(=O)(=O)c1ccc(F)cc1)[C@@H](C)CN([C@H](C)CO)S2(=O)=O,inactive: 0.975
6,COc1ccc(NC(=O)N(C)C[C@H]2OCCCC[C@H](C)Oc3ccc(NC(=O)Nc4ccc(C(F)(F)F)cc4)cc3C(=O)N([C@@H](C)CO)C[C@@H]2C)cc1,inactive: 1.01
7,C[C@@H]1CN([C@H](C)CO)C(=O)Cc2cc(NC(=O)Cc3cn(C)c4ccccc34)ccc2O[C@@H]1CN(C)CC1CCCCC1,inactive: 1
8,C[C@H](CO)N1C[C@H](C)[C@H](CN(C)S(=O)(=O)c2ccccc2)Oc2ncc(C#CCN(C)C)cc2C1=O,inactive: 1.01
9,C[C@@H]1CN([C@H](C)CO)C(=O)Cc2cc(NC(=O)Nc3cccc4ccccc34)ccc2O[C@H]1CN(C)Cc1ccc2c(c1)OCO2,inactive: 0.967
10,OC[C@@H](O)[C@@H](O)CO,inactive: 1.02
11,C[C@H]1CN([C@@H](C)CO)C(=O)c2cc(NS(C)(=O)=O)ccc2O[C@H]1CN(C)S(=O)(=O)c1cccs1,inactive: 1.01
12,C[C@H]1C/C(=C\N(C)C)C(=O)C1=O,inactive: 1.03
13,C[C@H](CO)N1C[C@H](C)[C@@H](CN(C)Cc2ccc(C(=O)Nc3ccccc3N)cc2)Oc2ccc(NC(=O)CCN3CCOCC3)cc2CC1=O,inactive: 1.02
14,O=C(Nc1cc(C(F)(F)F)ccc1-n1cnc2ccccc21)c1ccc(S(=O)(=O)N2CCCC2)cc1,inactive: 0.937
15,O=C(NC1CCN(CCCCC2(C(=O)NCC(F)(F)F)c3ccccc3-c3ccccc32)CC1)c1ccccc1-c1ccc(C(F)(F)F)cc1,inactive: 1.05
16,N=C(N)NCCC[C@H](N)C(=O)NCC(=O)N[C@@H](CC(=O)O)C(=O)N[C@@H](CO)C(=O)O,inactive: 0.981
17,C[C@@H]1CN([C@H](C)CO)C(=O)c2cc(NC(=O)Nc3ccc(C(F)(F)F)cc3)ccc2O[C@H]1CN(C)C(=O)Nc1ccccc1,inactive: 1.03
